Laboratory results published in PubChem BioAssay AID1460 (National Center for Advancing Translational Sciences (NCATS), 2008).
The campaign covered roughly 270,000 compounds. About 5,800 (2.1%) were called active. Inconclusive means that the source gave no clear call. Such entries were picked first, then a sample of the others. Calls follow the shape of the dose curve; as a rule, active = well fitted inhibition curve with a large enough effect; inconclusive = small, poorly fitted or top-dose-only effect; inactive = flat fitted curve, though single readings scatter. A potency beside an inconclusive call is a rough fit, not a confirmed value.

Each molecule was assayed against Microtubule-associated protein tau (Homo sapiens) (UniProt P10636) (assay: qHTS for Inhibitors of Tau Fibril Formation, Thioflavin T Binding). Conditions: recombinant tau K18 P301L (four-repeat tau fragment), heparin-induced fibrillization, ThT fluorescence; series mostly up to 57.4 µM; activity, negative = inhibition: at the top concentration.
Procedure, shortened: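 In this qHTS, human K18 P301L tau is incubated with compound and heparin for 6 hr at 37 C, and Thioflavin T fluorescence then reports fibril load.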
% is scaled to controls: 0 for no effect and ±100 for the full control effect; potency is read from the fitted curve at half-maximal effect; tags tell the direction and shape of the fitted curve.
Also: nearly all actives have a fitted effect of over 55% in size.

Chain of UniProt P10636 (P10636 whole entry, looked up, the tested form may be a part): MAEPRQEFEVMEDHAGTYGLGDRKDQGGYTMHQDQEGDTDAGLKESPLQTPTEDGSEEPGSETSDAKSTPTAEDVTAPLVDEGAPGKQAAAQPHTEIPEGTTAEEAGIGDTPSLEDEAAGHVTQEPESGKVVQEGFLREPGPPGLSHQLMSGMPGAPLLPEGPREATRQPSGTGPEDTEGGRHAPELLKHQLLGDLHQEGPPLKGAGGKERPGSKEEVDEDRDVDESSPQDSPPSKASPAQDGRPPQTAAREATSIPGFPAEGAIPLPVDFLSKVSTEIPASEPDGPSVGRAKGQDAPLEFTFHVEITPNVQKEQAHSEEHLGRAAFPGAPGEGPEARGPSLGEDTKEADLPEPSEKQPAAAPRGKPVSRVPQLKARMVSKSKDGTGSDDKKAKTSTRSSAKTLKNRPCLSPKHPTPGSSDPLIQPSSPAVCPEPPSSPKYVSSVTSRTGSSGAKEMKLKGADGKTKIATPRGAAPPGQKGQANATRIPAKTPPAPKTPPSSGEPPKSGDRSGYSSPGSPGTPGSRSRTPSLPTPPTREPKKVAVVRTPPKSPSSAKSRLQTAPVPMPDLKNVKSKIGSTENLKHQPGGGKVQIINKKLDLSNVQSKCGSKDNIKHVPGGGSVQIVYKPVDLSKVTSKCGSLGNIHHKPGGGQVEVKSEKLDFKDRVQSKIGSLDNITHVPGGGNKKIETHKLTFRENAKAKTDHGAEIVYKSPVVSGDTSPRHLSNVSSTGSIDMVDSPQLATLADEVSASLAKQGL

| SMILES | activity, negative = inhibition | Potency |
| --- | --- | --- |
| O=c1cc(-c2ccccc2O)oc2c1ccc1ccccc12 | inactive: -8.08% | – |
| Cc1ccc(C2/C(=C(/O)c3ccc(Br)cc3)C(=O)C(=O)N2Cc2ccco2)o1 (stereo not given) | inactive: -8.55% | – |
| Cc1cnc(C(=O)OCC(=O)NC2CCCCCCC2)cn1 | inactive: 1.05% | – |
| O=C(Nc1ccc(NC(=O)c2cc3ccccc3o2)cc1)c1ccc2c(c1)OCCO2 | – | inconclusive: 0.562 µM [inhibitor, full curve] |
| CC(OC(=O)c1cc[n+]([O-])cc1)C(=O)Nc1ccc(Cl)cn1 (stereo not given) | inactive: -0.824% | – |
| Clc1ccc(Cl)c(-c2nn3c(COc4ccccc4)nnc3s2)c1 | – | inconclusive: 31.6 µM [inhibitor, single point] |
| COC(=O)C1=C(C)Nc2ccc(C)cc2S1 | – | inconclusive: 14.1 µM [inhibitor, partial curve] |
| CCn1nc(C)cc1-c1n[nH]c(=S)n1N | inactive: -6.66% | – |
| O=C(Nc1ccc(OCc2ccccc2)cc1)Nc1ccccc1C(=O)NCCCN1CCOCC1 | – | inconclusive: 14.1 µM [inhibitor, partial curve] |
| O=C(c1ccccc1)N1CCCC(c2ccc(Cl)cc2)=N1 | – | inconclusive: 17.8 µM [inhibitor, partial curve] |
| Cc1ccc(O)c(-c2n[nH]c3c2C(c2ccccc2F)N(Cc2ccco2)C3=O)c1 (stereo not given) | – | inconclusive: 7.94 µM [inhibitor, partial curve] |
| COc1cc(=O)n(C)c2c(O)cccc12 | – | inconclusive: 1.78 µM [inhibitor, single point] |
| CCC(=O)N1CCN(c2ccc(Cl)cc2NC(=O)c2ccc(N3CCCC3)c([N+](=O)[O-])c2)CC1 | – | inconclusive: 4.47 µM [inhibitor, partial curve] |
| O=C(CNC(=O)C1COc2ccccc2O1)N/N=C\c1ccc(Cl)cc1 (stereo not given) | – | inconclusive: 0.794 µM [inhibitor, partial curve] |
| O=C(Cc1coc2ccc3ccccc3c12)NC1CCCc2ccccc21 (stereo not given) | inactive: -7.36% | – |
| Cc1ccc(-c2csc(NC(=O)c3cccc([N+](=O)[O-])c3C(=O)O)n2)cc1 | – | inconclusive: 2.51 µM [inhibitor, full curve, poor fit] |
| CCn1nc([N+](=O)[O-])c2c(-c3nc4ccccc4o3)c(N)n(CCCOC)c2c1=O | – | inconclusive: 7.08 µM [inhibitor, full curve] |
| O=C(Cn1c(=O)nc(-c2ccccc2)c2cc(Cl)ccc21)NCCc1ccccc1 | inactive: -0.955% | – |
| CCOC(=O)N1CCC(NC(=O)C2CCN(C(=O)N3CC(C)Oc4ccccc43)CC2)CC1 (stereo not given) | inactive: -2.86% | – |
| Cc1cn(C2CCC(CO)O2)c(=O)[nH]c1=O (stereo not given) | inactive: -4.69% | – |
| CC(=O)N/N=C/c1cc2c(cc1[N+](=O)[O-])OCO2 | inactive: 4.29% | – |
| Nc1ccc(C(=O)Nc2ccc3nc(-c4cccnc4)[nH]c3c2)cc1 | – | inconclusive: 7.94 µM [inhibitor, partial curve] |
| COc1ccc(-c2cc3nc(C)c(CCC(=O)NC(C)CCc4ccco4)c(C)n3n2)c(OC)c1 (stereo not given) | – | inconclusive: 28.2 µM [inhibitor, partial curve, poor fit] |
| O=C(N/N=C/c1ccccc1Br)c1ccc(CSc2cccc3cccnc23)cc1 | – | inconclusive: 0.794 µM [inhibitor, full curve] |

| SMILES | activity, negative = inhibition | Potency |
| --- | --- | --- |
| COc1cc(Cl)c(C)cc1NC(=O)c1cc2c(s1)-c1c(C)cccc1OC2 | – | inconclusive: 12.6 µM [inhibitor, partial curve] |
| O=C(/C=C/c1ccco1)OCc1nnc(-c2ccc(Cl)cc2)o1 | – | inconclusive: 28.2 µM [inhibitor, single point] |
| CC1=C(C(=O)OCc2ccccc2)C(/C=C/c2ccccc2)NC(=S)N1 (stereo not given) | – | inconclusive: 31.6 µM [inhibitor, single point] |
| CC(C)[C@@H](CC(=O)N[C@@H]1CCNC[C@H]1C(=O)N[C@H](CC(=O)N[C@@H](CCC(=O)O)CC(=O)O)Cc1c[nH]c2ccccc12)NC(=O)C[C@H](Cc1c[nH]c2ccccc12)NC(=O)[C@@H]1CCCC[C@H]1N | inactive: -7.03% | – |
| CCOC(=O)N1CCC(Nc2ccc3nnc(-c4ccccc4)n3n2)CC1 | – | inconclusive: 8.91 µM [inhibitor, partial curve, poor fit] |
| O=C(O)CCN1/C(=C/C=Nc2ccccc2)Oc2ccccc21 | – | inconclusive: 0.794 µM [inhibitor, full curve, poor fit] |
| Cc1cc(=O)n2nc(N3CCC(C(=O)NCc4ccc(Cl)cc4)CC3)sc2n1 | – | inconclusive: 8.91 µM [inhibitor, partial curve] |
| c1ccc(-c2ccc(-c3nccc4ccccc34)[nH]2)cc1 | – | inconclusive: 11.2 µM [inhibitor, partial curve] |
| CC(C)(C)n1c(=O)[nH]c2c(c1=O)CCC2 | – | inconclusive: 5.01 µM [inhibitor, single point] |
| C/C(=N\NC(=O)C1CC1)c1ccccc1O | inactive: -3.38% | – |
| Cc1cc(C(=O)O)c(CSCc2cc(C(=O)O)oc2C)o1 | – | inconclusive: 35.5 µM [inhibitor, partial curve] |
| COc1ccc(/C=C/C(=O)c2ccc(O)cc2)cc1CN1CCOCC1 | – | inconclusive: 15.8 µM [inhibitor, partial curve] |
| CCOC(=O)c1c(NC(=O)C2CCN(S(=O)(=O)c3ccc(Cl)cc3)CC2)sc2c1CCCC2 | – | inconclusive: 28.2 µM [inhibitor, single point] |
| COc1ccc(-c2csc(C3=C(O)CN(Cc4ccc(S(N)(=O)=O)cc4)C3=N)n2)cc1OC | – | inconclusive: 14.1 µM [inhibitor, partial curve, poor fit] |
| Cc1cc(N)n2nc(-c3ccc(C(C)(C)C)cc3)cc2n1 | – | inconclusive: 11.2 µM [inhibitor, partial curve] |
| COC(=O)CSc1nc(N)c2c3c(sc2n1)C(c1ccccc1)SC(c1ccccc1)C3 (stereo not given) | – | inconclusive: 12.6 µM [inhibitor, partial curve] |
| CC(=O)C1=C(C)OC(N)=C(C#N)C1c1cc2cc(C)c(C)cc2nc1Cl (stereo not given) | – | inconclusive: 44.7 µM [inhibitor, partial curve] |
| Cc1ccccc1NC(=O)Nc1cccs1 | – | inconclusive: 39.8 µM [inhibitor, single point] |
| NNc1ccc2nncn2n1 | inactive: -22.5% | – |
| COc1ccc(-c2nc(Cn3c(SCc4ccc(F)cc4)nc4cccnc43)c(C)o2)cc1 | – | inconclusive: 22.4 µM [inhibitor, partial curve] |
| CC(=O)c1cccc(NC(=O)c2ccc3nc(C(C)C)oc3c2)c1 | inactive: -1.08% | – |
| O=C(NCCc1cccs1)C1CC(c2ccc([N+](=O)[O-])cc2)=NO1 (stereo not given) | – | inconclusive: 2.82 µM [inhibitor, partial curve] |
| N#C/C(=C\c1ccc(-c2ccccc2Cl)o1)C(=O)Nc1nc2ccccc2s1 | – | active: 3.55 µM |
| O=C(NS(=O)(=O)c1ccc(F)cc1)O[C@@H]1C(=O)c2cc(Br)ccc2O[C@H]1c1ccc2c(c1)OCO2 | – | inconclusive: 12.6 µM [inhibitor, partial curve] |

| SMILES | activity, negative = inhibition | Potency |
| --- | --- | --- |
| CC1(C)Cc2noc(N)c2C(C)(C)N1O | – | inconclusive: 25.1 µM [inhibitor, single point] |
| CN1CC(=O)NC1=NC(=O)c1ccc(Cl)c(S(=O)(=O)N2CCCCCC2)c1 | inactive: -7.16% | – |
| CC1=CC(c2ccccc2)n2nc(NS(=O)(=O)c3ccc(C)cc3)nc2N1 (stereo not given) | – | active: 11.2 µM |
| Clc1ccccc1OCc1nnc(-c2ccccc2)o1 | – | inconclusive: 28.2 µM [inhibitor, single point] |
| COCCNc1nc(SCc2ccccc2)nc2sc3c(c12)CCC3 | – | inconclusive: 22.4 µM [inhibitor, partial curve] |
| COCCn1c(SCC(=O)NCc2ccco2)nnc1C(C)C | – | inconclusive: 20 µM [inhibitor, single point] |
| Cc1ccccc1C(=O)Nc1cccc(C(=O)OCc2cc(=O)n3nc(C4CC4)sc3n2)c1 | – | inconclusive: 3.55 µM [inhibitor, full curve] |
| O=C(/C=C/c1ccccc1F)c1ccoc1 | – | inconclusive: 14.1 µM [inhibitor, partial curve] |
| CC(C)(CN1CCN(c2ccccc2)CC1)NS(=O)(=O)c1ccccc1 | – | inconclusive: 35.5 µM [inhibitor, single point] |
| O=C(O)c1ccc2nc(-c3ccco3)c(-c3ccco3)nc2c1 | – | active: 7.94 µM |
| O=C1CCC[C@H]2OC12[C@@H](O)CCc1ccccc1 (stereo not given in full) | inactive: -10.4% [at 11.5 µM] | – |
| Cc1cccc(/C(N)=N/OC(=O)c2ccc(Br)o2)c1 | – | inconclusive: 22.4 µM [inhibitor, single point] |
| COc1ccc(NC(=O)c2sc3nc[nH]c(=O)c3c2C)cc1OC | inactive: -3.26% | – |
| Cc1cc(Br)c(OCC(=O)NN)c2c1CCC2 | inactive: -8.09% | – |
| COC(=O)C1(C)C=C(Nc2ccc(OC)cc2)C(=O)N1c1ccc(OC)cc1 (stereo not given) | inactive: -3.89% | – |
| CSc1ccc(/C=N/N2CCN(Cc3ccccc3)CC2)cc1 | – | inconclusive: 10 µM [inhibitor, partial curve] |
| FC(F)(F)c1nc2ccccc2nc1N/N=C/c1c(Cl)cccc1Cl | – | inconclusive: 0.794 µM [inhibitor, full curve, poor fit] |
| Cc1nnc(SCc2nnc(-c3cccs3)o2)n1Cc1ccccc1 | inactive: 4.12% | – |
| COc1cc2ncc3c(-c4ccccc4)nn(-c4ccc(C)cc4)c3c2cc1OC | inactive: -6.01% | – |
| COc1cc(/C=C/c2ccc3c([N+](=O)[O-])cccc3n2)ccc1OCC(=O)O | – | active: 3.16 µM |
| COC(=O)C1=C(C)N(c2ccc(S(N)(=O)=O)cc2)C(=O)C1 | – | inconclusive: 17.8 µM [inhibitor, single point] |
| Cc1ccc(C)c(Nc2nnc(-c3ccc(C)c(S(=O)(=O)N4CCCCC4)c3)c3ccccc23)c1 | – | inconclusive: 15.8 µM [inhibitor, partial curve] |
